# This is one part of the list.
# What was measured:
# Experiment in all cases: glycan array binding signal (z-score within array); higher = stronger binding
# Details in all cases: glycan notation: IUPAC condensed, linker removed
# [1] = target: Gal(b1-3)[Fuc(a1-4)]GlcNAc(b1-3)Gal(b1-4)[Fuc(a1-3)]GlcNAc
# In short: (§1)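 Columns mapping to the same glycan were averaged after glycan names were converted to IUPAC-condensed notation. The data come from 3228 arrays in the Consortium for Functional Glycomics database, limited to those with an available protein sequence. Binding is reported as a within-array Z-score averaged across arrays of one protein sequence and across linkers.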
# [2] = target: Gal(b1-3)[GlcNAc(b1-6)]GalNAc
# In short: as §1
# [3] = target: Gal(b1-3)[Neu5Ac(a2-6)]GalNAc
# In short: as §1
# [4] = target: Gal(b1-3)[Neu5Ac(a2-6)]GlcNAc(b1-6)Gal(b1-4)Glc
# In short: as §1
# [5] = target: Gal(b1-3)[Neu5Ac(b2-6)]GalNAc
# In short: as §1
# [6] = target: Gal(b1-4)GalNAc(a1-3)[Fuc(a1-2)]Gal(b1-4)GlcNAc
# In short: as §1
# [7] = target: Gal(b1-4)GalNAc(b1-3)[Fuc(a1-2)]Gal(b1-4)GlcNAc
# In short: as §1
# [8] = target: Gal(b1-4)Glc
# In short: as §1
# [9] = target: Gal(b1-4)Glc6S
# In short: as §1
# [10] = target: Gal(b1-4)GlcNAc
# In short: as §1
# [11] = target: Gal(b1-4)GlcNAc(a1-6)Gal(b1-4)GlcNAc
# In short: as §1
# [12] = target: Gal(b1-4)GlcNAc(b1-2)Man(a1-3)[Gal(b1-4)GlcNAc(b1-2)Man(a1-6)]Man(b1-4)GlcNAc(b1-4)GlcNAc
# In short: as §1
# [13] = target: Gal(b1-4)GlcNAc(b1-3)Gal(b1-3)GlcNAc
# In short: as §1
# [14] = target: Gal(b1-4)GlcNAc(b1-3)Gal(b1-4)Glc
# In short: as §1
# [15] = target: Gal(b1-4)GlcNAc(b1-3)Gal(b1-4)GlcNAc
# In short: as §1
# [16] = target: Gal(b1-4)GlcNAc(b1-3)Gal(b1-4)GlcNAc(b1-3)Gal(b1-4)GlcNAc
# In short: as §1
# [17] = target: Gal(b1-4)GlcNAc(b1-3)Gal(b1-4)[Fuc(a1-3)]GlcNAc(b1-3)Gal(b1-4)[Fuc(a1-3)]GlcNAc
# In short: as §1
# [18] = target: Gal(b1-4)GlcNAc(b1-3)GalNAc
# In short: as §1
# [19] = target: Gal(b1-4)GlcNAc(b1-3)[Gal(b1-4)GlcNAc(b1-6)]Gal(b1-4)GlcNAc
# In short: as §1
# [20] = target: Gal(b1-4)GlcNAc(b1-3)[GlcNAc(b1-6)]Gal(b1-4)GlcNAc
# In short: as §1
# [21] = target: Gal(b1-4)GlcNAc(b1-6)Gal(b1-4)GlcNAc
# In short: as §1
# [22] = target: Gal(b1-4)GlcNAc(b1-6)Gal(b1-4)GlcNAc(b1-6)GalNAc
# In short: as §1
# [23] = target: Gal(b1-4)GlcNAc(b1-6)GalNAc
# In short: as §1
# [24] = target: Gal(b1-4)GlcNAc(b1-6)[Gal(b1-3)]GalNAc
# In short: as §1
# [25] = target: Gal3S(b1-3)GalNAc
# In short: as §1
# [26] = target: Gal3S(b1-3)GlcNAc
# In short: as §1
# [27] = target: Gal3S(b1-3)[Fuc(a1-4)]GlcNAc
# In short: as §1
# [28] = target: Gal3S(b1-4)Glc
# In short: as §1
# [29] = target: Gal3S(b1-4)Glc6S
# In short: as §1
# [30] = target: Gal3S(b1-4)GlcNAc
# In short: as §1
# [31] = target: Gal3S(b1-4)GlcNAc6S
# In short: as §1
# [32] = target: Gal3S(b1-4)[Fuc(a1-3)]Glc
# In short: as §1
# [33] = target: Gal3S4S(b1-4)GlcNAc
# In short: as §1
# [34] = target: Gal3S6S(b1-4)GlcNAc
# In short: as §1
# [35] = target: Gal3S6S(b1-4)GlcNAc6S
# In short: as §1
# [36] = target: Gal4S(b1-4)GlcNAc
# In short: as §1
# [37] = target: Gal4S6S(b1-4)GlcNAc
# In short: as §1
# [38] = target: Gal6S(b1-4)Glc
# In short: as §1
# [39] = target: Gal6S(b1-4)Glc6S
# In short: as §1
# [40] = target: Gal6S(b1-4)GlcNAc
# In short: as §1
# [41] = target: Gal6S(b1-4)GlcNAc6S
# In short: as §1
# [42] = target: GalNAc(a1-3)Gal
# In short: as §1
# [43] = target: GalNAc(a1-3)GalNAc
# In short: as §1
# [44] = target: GalNAc(b1-3)Gal
# In short: as §1
# [45] = target: GalNAc(b1-3)Gal(a1-4)Gal(b1-4)GlcNAc
# In short: as §1
# [46] = target: GalNAc(b1-3)GalNAc
# In short: as §1
# [47] = target: GalNAc(b1-4)GlcNAc
# In short: as §1
# [48] = target: Glc(a1-4)Glc
# In short: as §1
# [49] = target: Glc(a1-6)Glc(a1-6)Glc
# In short: as §1
# [50] = target: Glc(b1-4)Glc
# In short: as §1
# [51] = target: Glc(b1-6)Glc
# In short: as §1
# [52] = target: GlcA(b1-3)Gal
# In short: as §1
# [53] = target: GlcA(b1-3)GlcNAc
# In short: as §1
# [54] = target: GlcA(b1-6)Gal
# In short: as §1
# [55] = target: GlcNAc(a1-3)Gal(b1-4)GlcNAc
# In short: as §1
# [56] = target: GlcNAc(a1-6)Gal(b1-4)GlcNAc
# In short: as §1
# [57] = target: GlcNAc(b1-2)Gal(b1-3)GalNAc
# In short: as §1
# [58] = target: GlcNAc(b1-2)Man(a1-3)[GlcNAc(b1-2)Man(a1-6)]Man(b1-4)GlcNAc(b1-4)GlcNAc
# In short: as §1
# [59] = target: GlcNAc(b1-3)Gal
# In short: as §1
# [60] = target: GlcNAc(b1-3)Gal(b1-3)GalNAc
# In short: as §1
# [61] = target: GlcNAc(b1-3)Gal(b1-4)Glc
# In short: as §1
# [62] = target: GlcNAc(b1-3)Gal(b1-4)GlcNAc
# In short: as §1
# [63] = target: GlcNAc(b1-3)Gal(b1-4)GlcNAc(b1-3)Gal(b1-4)GlcNAc
# In short: as §1
# [64] = target: GlcNAc(b1-3)GalNAc
# In short: as §1
# [65] = target: GlcNAc(b1-3)Man
# In short: as §1
# [66] = target: GlcNAc(b1-3)[GlcNAc(b1-4)][GlcNAc(b1-6)]GlcNAc
# In short: as §1
# [67] = target: GlcNAc(b1-3)[GlcNAc(b1-6)]Gal(b1-4)GlcNAc
# In short: as §1
# [68] = target: GlcNAc(b1-3)[GlcNAc(b1-6)]GalNAc
# In short: as §1
# [69] = target: GlcNAc(b1-4)Gal(b1-4)GlcNAc
# In short: as §1
# [70] = target: GlcNAc(b1-4)GlcNAc
# In short: as §1
# [71] = target: GlcNAc(b1-4)GlcNAc(b1-4)GlcNAc
# In short: as §1
# [72] = target: GlcNAc(b1-4)GlcNAc(b1-4)GlcNAc(b1-4)GlcNAc(b1-4)GlcNAc
# In short: as §1
# [73] = target: GlcNAc(b1-4)GlcNAc(b1-4)GlcNAc(b1-4)GlcNAc(b1-4)GlcNAc(b1-4)GlcNAc
# In short: as §1
# [74] = target: GlcNAc(b1-4)[GlcNAc(b1-6)]GalNAc
# In short: as §1
# [75] = target: GlcNAc(b1-6)Gal(b1-4)GlcNAc
# In short: as §1
binder,measurement,setting,value
"Ficolin A (Rattus norvegicus), Q9WTS8 (protein) MWWPMLWAFPVLLCLCSSQALGQESGACPDVKIVGLGAQDKVAVIQSCPSFPGPPGPKGEPGSPAGRGERGLQGSPGKMGPPGSKGEPGTMGPPGVKGEKGERGTASPLGQKELGDALCRRGPRSCKDLLTRGIFLTGWYTIYLPDCRPLTVLCDMDVDGGGWTVFQRRVDGSINFYRDWDSYKRGFGNLGTEFWLGNDYLHLLTANGNQELRVDLREFQGQTSFAKYSSFQVSGEQEKYKLTLGQFLEGTAGDSLTKHNNMAFSTHDQDNDTNGGKNCAALFHGAWWYHDCHQSNLNGRYLPGSHESYADGINWLSGRGHRYSYKVAEMKIRAS",glycan array binding signal (z-score),[1],-0.113
same,glycan array binding signal (z-score),[2],-0.108
same,glycan array binding signal (z-score),[3],-0.123
same,glycan array binding signal (z-score),[4],-0.085
same,glycan array binding signal (z-score),[5],-0.093
same,glycan array binding signal (z-score),[6],-0.03
same,glycan array binding signal (z-score),[7],-0.087
same,glycan array binding signal (z-score),[8],-0.013
same,glycan array binding signal (z-score),[9],-0.092
same,glycan array binding signal (z-score),[10],-0.1
same,glycan array binding signal (z-score),[11],-0.095
same,glycan array binding signal (z-score),[12],-0.116
same,glycan array binding signal (z-score),[13],-0.104
same,glycan array binding signal (z-score),[14],-0.081
same,glycan array binding signal (z-score),[15],0.135
same,glycan array binding signal (z-score),[16],-0.093
same,glycan array binding signal (z-score),[17],-0.029
same,glycan array binding signal (z-score),[18],-0.093
same,glycan array binding signal (z-score),[19],-0.045
same,glycan array binding signal (z-score),[20],-0.089
same,glycan array binding signal (z-score),[21],-0.106
same,glycan array binding signal (z-score),[22],-0.087
same,glycan array binding signal (z-score),[23],-0.095
same,glycan array binding signal (z-score),[24],-0.102
same,glycan array binding signal (z-score),[25],-0.085
same,glycan array binding signal (z-score),[26],-0.038
same,glycan array binding signal (z-score),[27],-0.067
same,glycan array binding signal (z-score),[28],-0.121
same,glycan array binding signal (z-score),[29],-0.014
same,glycan array binding signal (z-score),[30],-0.099
same,glycan array binding signal (z-score),[31],-0.062
same,glycan array binding signal (z-score),[32],0.001
same,glycan array binding signal (z-score),[33],-0.103
same,glycan array binding signal (z-score),[34],-0.117
same,glycan array binding signal (z-score),[35],-0.124
same,glycan array binding signal (z-score),[36],-0.049
same,glycan array binding signal (z-score),[37],-0.105
same,glycan array binding signal (z-score),[38],0.006
same,glycan array binding signal (z-score),[39],0.07
same,glycan array binding signal (z-score),[40],-0.005
same,glycan array binding signal (z-score),[41],-0.104
same,glycan array binding signal (z-score),[42],0.04
same,glycan array binding signal (z-score),[43],-0.099
same,glycan array binding signal (z-score),[44],-0.063
same,glycan array binding signal (z-score),[45],-0.058
same,glycan array binding signal (z-score),[46],-0.094
same,glycan array binding signal (z-score),[47],-0.074
same,glycan array binding signal (z-score),[48],-0.077
same,glycan array binding signal (z-score),[49],-0.094
same,glycan array binding signal (z-score),[50],-0.11
same,glycan array binding signal (z-score),[51],0.025
same,glycan array binding signal (z-score),[52],-0.071
same,glycan array binding signal (z-score),[53],-0.049
same,glycan array binding signal (z-score),[54],-0.07
same,glycan array binding signal (z-score),[55],-0.083
same,glycan array binding signal (z-score),[56],17.3
same,glycan array binding signal (z-score),[57],-0.062
same,glycan array binding signal (z-score),[58],-0.048
same,glycan array binding signal (z-score),[59],-0.109
same,glycan array binding signal (z-score),[60],-0.101
same,glycan array binding signal (z-score),[61],-0.056
same,glycan array binding signal (z-score),[62],-0.094
same,glycan array binding signal (z-score),[63],-0.045
same,glycan array binding signal (z-score),[64],-0.114
same,glycan array binding signal (z-score),[65],-0.09
same,glycan array binding signal (z-score),[66],0.055
same,glycan array binding signal (z-score),[67],-0.081
same,glycan array binding signal (z-score),[68],-0.07
same,glycan array binding signal (z-score),[69],-0.084
same,glycan array binding signal (z-score),[70],-0.079
same,glycan array binding signal (z-score),[71],-0.09
same,glycan array binding signal (z-score),[72],-0.106
same,glycan array binding signal (z-score),[73],-0.084
same,glycan array binding signal (z-score),[74],-0.056
same,glycan array binding signal (z-score),[75],-0.087

# — the supplement of paper PMC8728848
